{"source": "the supplement of paper PMC8728848", "binders": {"B1": {"name": "MAA (Maackia amurensis), P0DKL3 (protein)", "chain": "MATSNSKPTQVLLATFLTFFFLLLNNVNSSDELSFTINNFVPNEADLLFQGEASVSSTGVLQLTRVENGQPQKYSVGRALYAAPVRIWDNTTGSVASFSTSFTFVVKAPNPDITSDGLAFYLAPPDSQIPSGSVSKYLGLFNNSNSDSSNQIVAVELDTYFAHSYDPWDPNYRHIGIDVNGIESIKTVQWDWINGGVAFATITYLAPNKTLIASLVYPSNQTTFSVAASVDLKEILPEWVRVGFSAATGYPTEVETHDVLSWSFTSTLEANCDAATENNVHIARYTA"}}, "test_in_all_cases": "glycan array binding signal (z-score within array); higher = stronger binding", "details_in_all_cases": "glycan notation: IUPAC condensed, linker removed", "key": {"[1]": {"target": "GlcNAc(b1-3)Gal(b1-4)GlcNAc(b1-6)[GlcNAc(b1-3)]Gal(b1-4)GlcNAc", "in_short": "(§1)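 The Consortium for Functional Glycomics database supplied 3228 glycan arrays, of which those lacking an available protein sequence were dropped. The binding signal, a within-array Z-score, was averaged across arrays of the same protein sequence and across linkers. Negative scores can be read as non-binding.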"}, "GlcNAc(b1-3)GalNAc": {"target": "GlcNAc(b1-3)GalNAc", "in_short": "as §1"}, "GlcNAc(b1-3)Man": {"target": "GlcNAc(b1-3)Man", "in_short": "as §1"}, "[2]": {"target": "GlcNAc(b1-3)[GlcNAc(b1-4)][GlcNAc(b1-6)]GlcNAc", "in_short": "as §1"}, "[3]": {"target": "GlcNAc(b1-3)[GlcNAc(b1-6)]Gal(b1-4)GlcNAc", "in_short": "as §1"}, "[4]": {"target": "GlcNAc(b1-3)[GlcNAc(b1-6)]GalNAc", "in_short": "as §1"}, "[5]": {"target": "GlcNAc(b1-3)[GlcNAc(b1-6)]GlcNAc(b1-4)GlcNAc", "in_short": "as §1"}, "[6]": {"target": "GlcNAc(b1-4)Gal(b1-4)GlcNAc", "in_short": "as §1"}, "GlcNAc(b1-4)GlcNAc": {"target": "GlcNAc(b1-4)GlcNAc", "in_short": "as §1"}, "[7]": {"target": "GlcNAc(b1-4)GlcNAc(b1-4)GlcNAc", "in_short": "as §1"}, "[8]": {"target": "GlcNAc(b1-4)GlcNAc(b1-4)GlcNAc(b1-4)GlcNAc(b1-4)GlcNAc", "in_short": "as §1"}, "[9]": {"target": "GlcNAc(b1-4)GlcNAc(b1-4)GlcNAc(b1-4)GlcNAc(b1-4)GlcNAc(b1-4)GlcNAc", "in_short": "as §1"}, "[10]": {"target": "GlcNAc(b1-4)[GlcNAc(b1-6)]GalNAc", "in_short": "as §1"}, "[11]": {"target": "GlcNAc(b1-6)Gal(b1-4)GlcNAc", "in_short": "as §1"}, "GlcNAc(b1-6)GalNAc": {"target": "GlcNAc(b1-6)GalNAc", "in_short": "as §1"}, "[12]": {"target": "GlcNAc6S(b1-3)Gal(b1-4)GlcNAc", "in_short": "as §1"}, "Kdn(a2-3)Gal(b1-3)GalNAc": {"target": "Kdn(a2-3)Gal(b1-3)GalNAc", "in_short": "as §1"}, "Kdn(a2-3)Gal(b1-3)GlcNAc": {"target": "Kdn(a2-3)Gal(b1-3)GlcNAc", "in_short": "as §1"}, "Kdn(a2-3)Gal(b1-4)Glc": {"target": "Kdn(a2-3)Gal(b1-4)Glc", "in_short": "as §1"}, "Kdn(a2-3)Gal(b1-4)GlcNAc": {"target": "Kdn(a2-3)Gal(b1-4)GlcNAc", "in_short": "as §1"}, "[13]": {"target": "Kdn(a2-3)Gal(b1-4)[Fuc(a1-3)]GlcNAc", "in_short": "as §1"}, "Kdn(a2-6)Gal(b1-4)GlcNAc": {"target": "Kdn(a2-6)Gal(b1-4)GlcNAc", "in_short": "as §1"}, "[14]": {"target": "Man(a1-2)Man(a1-2)Man(a1-3)Man", "in_short": "as §1"}, "[15]": {"target": "Man(a1-2)Man(a1-2)Man(a1-6)[Man(a1-3)]Man", "in_short": "as §1"}, "Man(a1-2)Man(a1-3)Man": {"target": "Man(a1-2)Man(a1-3)Man", "in_short": "as §1"}, "[16]": {"target": "Man(a1-2)Man(a1-3)[Man(a1-2)Man(a1-6)]Man", "in_short": "as §1"}, "[17]": {"target": "Man(a1-2)Man(a1-3)[Man(a1-2)Man(a1-6)]Man(a1-6)[Man(a1-2)Man(a1-2)Man(a1-3)]Man", "in_short": "as §1"}, "[18]": {"target": "Man(a1-2)Man(a1-3)[Man(a1-2)Man(a1-6)]Man(a1-6)[Man(a1-2)Man(a1-2)Man(a1-3)]Man(b1-4)GlcNAc(b1-4)GlcNAc", "in_short": "as §1"}, "[19]": {"target": "Man(a1-2)Man(a1-3)[Man(a1-6)]Man(a1-6)[Man(a1-2)Man(a1-3)]Man(b1-4)GlcNAc(b1-4)GlcNAc", "in_short": "as §1"}, "[20]": {"target": "Man(a1-2)Man(a1-6)[Man(a1-3)]Man(a1-6)[Man(a1-2)Man(a1-2)Man(a1-3)]Man", "in_short": "as §1"}, "[21]": {"target": "Man(a1-2)Man(a1-6)[Man(a1-3)]Man(a1-6)[Man(a1-2)Man(a1-2)Man(a1-3)]Man(b1-4)GlcNAc(b1-4)GlcNAc", "in_short": "as §1"}, "Man(a1-3)[Man(a1-6)]Man": {"target": "Man(a1-3)[Man(a1-6)]Man", "in_short": "as §1"}, "[22]": {"target": "Man(a1-3)[Man(a1-6)]Man(a1-6)[Man(a1-2)Man(a1-3)]Man(b1-4)GlcNAc(b1-4)GlcNAc", "in_short": "as §1"}, "[23]": {"target": "Man(a1-3)[Man(a1-6)]Man(a1-6)[Man(a1-3)]Man", "in_short": "as §1"}, "[24]": {"target": "Man(a1-3)[Man(a1-6)]Man(a1-6)[Man(a1-3)]Man(b1-4)GlcNAc(b1-4)GlcNAc", "in_short": "as §1"}, "[25]": {"target": "Man(a1-3)[Man(a1-6)]Man(b1-4)GlcNAc(b1-4)GlcNAc", "in_short": "as §1"}, "[26]": {"target": "Man(a1-3)[Man(a1-6)]Man(b1-4)GlcNAc(b1-4)[Fuc(a1-6)]GlcNAc", "in_short": "as §1"}, "Man(a1-6)Man": {"target": "Man(a1-6)Man", "in_short": "as §1"}, "Man(b1-4)GlcNAc": {"target": "Man(b1-4)GlcNAc", "in_short": "as §1"}, "MurNAc(b1-4)GlcNAc": {"target": "MurNAc(b1-4)GlcNAc", "in_short": "as §1"}, "Neu5Ac(a2-3)Gal": {"target": "Neu5Ac(a2-3)Gal", "in_short": "as §1"}, "[27]": {"target": "Neu5Ac(a2-3)Gal(b1-3)GalNAc", "in_short": "as §1"}, "[28]": {"target": "Neu5Ac(a2-3)Gal(b1-3)GalNAc(b1-3)Gal(a1-4)Gal(b1-4)Glc", "in_short": "as §1"}, "[29]": {"target": "Neu5Ac(a2-3)Gal(b1-3)GalNAc(b1-3)Gal(b1-4)GlcNAc", "in_short": "as §1"}, "[30]": {"target": "Neu5Ac(a2-3)Gal(b1-3)GalNAc(b1-4)[Neu5Ac(a2-3)]Gal(b1-4)Glc", "in_short": "as §1"}}, "note": "Some of the results follow.", "data": [{"binder": "B1", "values": [{"measurement": "glycan array binding signal (z-score)", "setting": "[1]", "result": 0.208}, {"measurement": "glycan array binding signal (z-score)", "setting": "GlcNAc(b1-3)GalNAc", "result": -0.204}, {"measurement": "glycan array binding signal (z-score)", "setting": "GlcNAc(b1-3)Man", "result": -0.183}, {"measurement": "glycan array binding signal (z-score)", "setting": "[2]", "result": -0.19}, {"measurement": "glycan array binding signal (z-score)", "setting": "[3]", "result": -0.138}, {"measurement": "glycan array binding signal (z-score)", "setting": "[4]", "result": -0.19}, {"measurement": "glycan array binding signal (z-score)", "setting": "[5]", "result": -0.222}, {"measurement": "glycan array binding signal (z-score)", "setting": "[6]", "result": -0.331}, {"measurement": "glycan array binding signal (z-score)", "setting": "GlcNAc(b1-4)GlcNAc", "result": -0.125}, {"measurement": "glycan array binding signal (z-score)", "setting": "[7]", "result": 0.17}, {"measurement": "glycan array binding signal (z-score)", "setting": "[8]", "result": 0.497}, {"measurement": "glycan array binding signal (z-score)", "setting": "[9]", "result": 0.556}, {"measurement": "glycan array binding signal (z-score)", "setting": "[10]", "result": -0.231}, {"measurement": "glycan array binding signal (z-score)", "setting": "[11]", "result": -0.232}, {"measurement": "glycan array binding signal (z-score)", "setting": "GlcNAc(b1-6)GalNAc", "result": -0.223}, {"measurement": "glycan array binding signal (z-score)", "setting": "[12]", "result": -0.188}, {"measurement": "glycan array binding signal (z-score)", "setting": "Kdn(a2-3)Gal(b1-3)GalNAc", "result": -0.116}, {"measurement": "glycan array binding signal (z-score)", "setting": "Kdn(a2-3)Gal(b1-3)GlcNAc", "result": -0.221}, {"measurement": "glycan array binding signal (z-score)", "setting": "Kdn(a2-3)Gal(b1-4)Glc", "result": -0.117}, {"measurement": "glycan array binding signal (z-score)", "setting": "Kdn(a2-3)Gal(b1-4)GlcNAc", "result": 0.436}, {"measurement": "glycan array binding signal (z-score)", "setting": "[13]", "result": -0.082}, {"measurement": "glycan array binding signal (z-score)", "setting": "Kdn(a2-6)Gal(b1-4)GlcNAc", "result": -0.144}, {"measurement": "glycan array binding signal (z-score)", "setting": "[14]", "result": -0.188}, {"measurement": "glycan array binding signal (z-score)", "setting": "[15]", "result": -0.236}, {"measurement": "glycan array binding signal (z-score)", "setting": "Man(a1-2)Man(a1-3)Man", "result": -0.178}, {"measurement": "glycan array binding signal (z-score)", "setting": "[16]", "result": -0.14}, {"measurement": "glycan array binding signal (z-score)", "setting": "[17]", "result": -0.18}, {"measurement": "glycan array binding signal (z-score)", "setting": "[18]", "result": -0.107}, {"measurement": "glycan array binding signal (z-score)", "setting": "[19]", "result": -0.2}, {"measurement": "glycan array binding signal (z-score)", "setting": "[20]", "result": -0.191}, {"measurement": "glycan array binding signal (z-score)", "setting": "[21]", "result": -0.26}, {"measurement": "glycan array binding signal (z-score)", "setting": "Man(a1-3)[Man(a1-6)]Man", "result": -0.223}, {"measurement": "glycan array binding signal (z-score)", "setting": "[22]", "result": 0.015}, {"measurement": "glycan array binding signal (z-score)", "setting": "[23]", "result": -0.174}, {"measurement": "glycan array binding signal (z-score)", "setting": "[24]", "result": -0.208}, {"measurement": "glycan array binding signal (z-score)", "setting": "[25]", "result": -0.056}, {"measurement": "glycan array binding signal (z-score)", "setting": "[26]", "result": -0.266}, {"measurement": "glycan array binding signal (z-score)", "setting": "Man(a1-6)Man", "result": -0.166}, {"measurement": "glycan array binding signal (z-score)", "setting": "Man(b1-4)GlcNAc", "result": -0.263}, {"measurement": "glycan array binding signal (z-score)", "setting": "MurNAc(b1-4)GlcNAc", "result": -0.139}, {"measurement": "glycan array binding signal (z-score)", "setting": "Neu5Ac(a2-3)Gal", "result": -0.23}, {"measurement": "glycan array binding signal (z-score)", "setting": "[27]", "result": -0.27}, {"measurement": "glycan array binding signal (z-score)", "setting": "[28]", "result": -0.217}, {"measurement": "glycan array binding signal (z-score)", "setting": "[29]", "result": -0.244}, {"measurement": "glycan array binding signal (z-score)", "setting": "[30]", "result": -0.258}]}]}
